In publication PMC6796939:
No constants are given. Whether binding was seen depends on the method and setting. In cells and extracts the contact can be indirect. Some entries that bind do so weakly or less than the wild type. Tags and fused reporters may be left off the sequences shown.

Molecular target: T1, membrane-tethered Ptc-C4 (Myrflg-Ptc-C4-V5) (Drosophila) (UniProt P18502)
T1 sequence: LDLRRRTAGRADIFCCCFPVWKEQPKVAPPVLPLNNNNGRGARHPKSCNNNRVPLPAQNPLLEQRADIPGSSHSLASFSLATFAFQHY
Test: co-IP; S2 cells co-transfected with tagged constructs; lysed in NP-40 buffer (50 mM Tris-Cl pH 8.0, 0.1 M NaCl, 1% NP-40, 10% glycerol, 1.5 mM EDTA) at 4 °C; primary antibody (anti-V5, anti-HA, anti-Flag) 2 h, protein A/G 1 h; western blot; some panels with or without Hh (Hh plasmid and Hh conditioned medium), some with dsRNA against ptc 5'UTR to knock down endogenous Ptc

Question: How did the binding turn out when “HA tagged PKAc (3XHA-PKAc) (from UniProt P12370 1-353) (enzyme)” was run?
Answer: binds
